{
  "source": "the supplement of paper PMC8728848",
  "binders": {"B1": {"name": "PkBDPgamma (Plasmodium knowlesi) (protein)", "chain": "SAINQIFLQNNVMDKCNDKRKRGERDWDCPTEKDVCIPDRRYQLCMMEITNLVDTDTHFHSDIIFRKSYSRRRLIYDVGGRGDLLLKKYNNVYSEDLCKDIKWSLQDFGDIIMGTDMEGIGYSLVVQNNLRSIFGTGTSAELDRKKWWNDHKKDIWKAMILSVKEKNRYSAWNCKEDVQIKVEPQIYRWIREWGRDYMSEFREQRRKLNEKCEDKLYYSTMLICTLPPCNNACKSYDEWITGKKKQWDVLSTKFSSVKKAQKIETENIARAYDILKQELNGFNEVTFENEINKRDKLYNYFCVCIVQEARKNTQENVKNVGSGVESKAPSSNPINEAVKSSSGEGKVQEDSAHRSVNEGEGKSSTNEADPGSQPGAAASGGGSGGGTGGGVDLAPQMLRELQETNAALQDVRELLRQQVKEITFLKNTVMECDACGGPLDRNLPPLAPLGPTGGWSHPQFEK"}},
  "assay_in_all_cases": "glycan array binding signal (z-score within array); higher = stronger binding",
  "conditions_in_all_cases": "glycan notation: IUPAC condensed, linker removed",
  "key": {"[1]": {"molecular_target": "Gal(b1-3)GlcNAc(b1-6)GalNAc", "outline": "(§1)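 Glycan array binding is given as a within-array Z-score, which can be read as non-binding when negative. The arrays, 3228 of them, came from the Consortium for Functional Glycomics database and were retained only where the protein sequence was available. Z-scores were averaged across arrays of the same protein sequence at different concentrations or buffers and across linkers.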"}, "[2]": {"molecular_target": "Gal(b1-3)GlcNAc(b1-6)[Gal(b1-3)]GalNAc", "outline": "as §1"}, "Gal(b1-3)GlcNAc6S": {"molecular_target": "Gal(b1-3)GlcNAc6S", "outline": "as §1"}, "[3]": {"molecular_target": "Gal(b1-3)[Fuc(a1-4)]GlcNAc", "outline": "as §1"}, "[4]": {"molecular_target": "Gal(b1-3)[Fuc(a1-4)]GlcNAc(b1-2)Man", "outline": "as §1"}, "[5]": {"molecular_target": "Gal(b1-3)[Fuc(a1-4)]GlcNAc(b1-2)Man(a1-3)[Gal(b1-3)[Fuc(a1-4)]GlcNAc(b1-2)Man(a1-6)]Man(b1-4)GlcNAc(b1-4)[Fuc(a1-6)]GlcNAc", "outline": "as §1"}, "[6]": {"molecular_target": "Gal(b1-3)[Fuc(a1-4)]GlcNAc(b1-3)Gal(b1-3)[Fuc(a1-4)]GlcNAc", "outline": "as §1"}, "[7]": {"molecular_target": "Gal(b1-3)[Fuc(a1-4)]GlcNAc(b1-3)Gal(b1-4)[Fuc(a1-3)]GlcNAc", "outline": "as §1"}, "[8]": {"molecular_target": "Gal(b1-3)[Fuc(a1-4)]GlcNAc(b1-6)GalNAc", "outline": "as §1"}, "[9]": {"molecular_target": "Gal(b1-3)[GlcNAc(b1-6)]GalNAc", "outline": "as §1"}, "[10]": {"molecular_target": "Gal(b1-3)[Neu5Ac(a2-6)]GalNAc", "outline": "as §1"}, "[11]": {"molecular_target": "Gal(b1-3)[Neu5Ac(a2-6)]GlcNAc(b1-4)Gal(b1-4)Glc", "outline": "as §1"}, "[12]": {"molecular_target": "Gal(b1-3)[Neu5Ac(b2-6)]GalNAc", "outline": "as §1"}, "Gal(b1-4)Gal": {"molecular_target": "Gal(b1-4)Gal", "outline": "as §1"}, "[13]": {"molecular_target": "Gal(b1-4)GalNAc(a1-3)[Fuc(a1-2)]Gal(b1-4)GlcNAc", "outline": "as §1"}, "[14]": {"molecular_target": "Gal(b1-4)GalNAc(b1-3)[Fuc(a1-2)]Gal(b1-4)GlcNAc", "outline": "as §1"}, "Gal(b1-4)Glc": {"molecular_target": "Gal(b1-4)Glc", "outline": "as §1"}, "Gal(b1-4)Glc6S": {"molecular_target": "Gal(b1-4)Glc6S", "outline": "as §1"}, "Gal(b1-4)GlcNAc": {"molecular_target": "Gal(b1-4)GlcNAc", "outline": "as §1"}, "[15]": {"molecular_target": "Gal(b1-4)GlcNAc(a1-6)Gal(b1-4)GlcNAc", "outline": "as §1"}, "Gal(b1-4)GlcNAc(b1-2)Man": {"molecular_target": "Gal(b1-4)GlcNAc(b1-2)Man", "outline": "as §1"}, "[16]": {"molecular_target": "Gal(b1-4)GlcNAc(b1-2)Man(a1-3)Man(b1-4)GlcNAc(b1-4)GlcNAc", "outline": "as §1"}, "[17]": {"molecular_target": "Gal(b1-4)GlcNAc(b1-2)Man(a1-3)[Gal(b1-4)GlcNAc(b1-2)Man(a1-6)]Man(b1-4)GlcNAc(b1-4)GlcNAc", "outline": "as §1"}, "[18]": {"molecular_target": "Gal(b1-4)GlcNAc(b1-2)Man(a1-3)[Gal(b1-4)GlcNAc(b1-2)Man(a1-6)]Man(b1-4)GlcNAc(b1-4)[Fuc(a1-6)]GlcNAc", "outline": "as §1"}, "[19]": {"molecular_target": "Gal(b1-4)GlcNAc(b1-2)Man(a1-3)[Gal(b1-4)GlcNAc(b1-2)Man(a1-6)][Gal(b1-4)GlcNAc(b1-4)]Man(b1-4)GlcNAc(b1-4)[Fuc(a1-6)]GlcNAc", "outline": "as §1"}, "[20]": {"molecular_target": "Gal(b1-4)GlcNAc(b1-2)Man(a1-3)[Gal(b1-4)GlcNAc(b1-2)Man(a1-6)][GlcNAc(b1-4)]Man(b1-4)GlcNAc(b1-4)[Fuc(a1-6)]GlcNAc", "outline": "as §1"}, "[21]": {"molecular_target": "Gal(b1-4)GlcNAc(b1-2)Man(a1-3)[GlcNAc(b1-2)Man(a1-6)]Man(b1-4)GlcNAc(b1-4)GlcNAc", "outline": "as §1"}, "[22]": {"molecular_target": "Gal(b1-4)GlcNAc(b1-2)Man(a1-3)[GlcNAc(b1-4)][Gal(b1-4)GlcNAc(b1-2)Man(a1-6)]Man(b1-4)GlcNAc(b1-4)GlcNAc", "outline": "as §1"}, "[23]": {"molecular_target": "Gal(b1-4)GlcNAc(b1-2)Man(a1-3)[Man(a1-6)]Man(b1-4)GlcNAc(b1-4)GlcNAc", "outline": "as §1"}, "[24]": {"molecular_target": "Gal(b1-4)GlcNAc(b1-2)Man(a1-6)Man(b1-4)GlcNAc(b1-4)GlcNAc", "outline": "as §1"}, "[25]": {"molecular_target": "Gal(b1-4)GlcNAc(b1-2)Man(a1-6)[GlcNAc(b1-2)Man(a1-3)]Man(b1-4)GlcNAc(b1-4)GlcNAc", "outline": "as §1"}, "[26]": {"molecular_target": "Gal(b1-4)GlcNAc(b1-2)Man(a1-6)[Man(a1-3)]Man(b1-4)GlcNAc(b1-4)GlcNAc", "outline": "as §1"}, "[27]": {"molecular_target": "Gal(b1-4)GlcNAc(b1-2)[Gal(b1-4)GlcNAc(b1-4)]Man(a1-3)[Gal(b1-4)GlcNAc(b1-2)Man(a1-6)]Man(b1-4)GlcNAc(b1-4)GlcNAc", "outline": "as §1"}, "[28]": {"molecular_target": "Gal(b1-4)GlcNAc(b1-2)[Gal(b1-4)GlcNAc(b1-4)]Man(a1-3)[Gal(b1-4)GlcNAc(b1-2)[Gal(b1-4)GlcNAc(b1-6)]Man(a1-6)]Man(b1-4)GlcNAc(b1-4)GlcNAc", "outline": "as §1"}, "[29]": {"molecular_target": "Gal(b1-4)GlcNAc(b1-2)[Gal(b1-4)GlcNAc(b1-4)]Man(a1-3)[GlcNAc(b1-4)][Gal(b1-4)GlcNAc(b1-2)Man(a1-6)]Man(b1-4)GlcNAc(b1-4)GlcNAc", "outline": "as §1"}, "[30]": {"molecular_target": "Gal(b1-4)GlcNAc(b1-2)[Gal(b1-4)GlcNAc(b1-4)]Man(a1-3)[GlcNAc(b1-4)][Gal(b1-4)GlcNAc(b1-2)[Gal(b1-4)GlcNAc(b1-6)]Man(a1-6)]Man(b1-4)GlcNAc(b1-4)GlcNAc", "outline": "as §1"}, "[31]": {"molecular_target": "Gal(b1-4)GlcNAc(b1-2)[Gal(b1-4)GlcNAc(b1-6)]Man(a1-6)[Gal(b1-4)GlcNAc(b1-2)Man(a1-3)]Man(b1-4)GlcNAc(b1-4)GlcNAc", "outline": "as §1"}},
  "note": "The other results are listed elsewhere or left out.",
  "data": [
    {"binder": "B1", "values": [
      {"measurement": "glycan array binding signal (z-score)", "setting": "[1]", "result": 0.183},
      {"measurement": "glycan array binding signal (z-score)", "setting": "[2]", "result": -0.036},
      {"measurement": "glycan array binding signal (z-score)", "setting": "Gal(b1-3)GlcNAc6S", "result": 0.211},
      {"measurement": "glycan array binding signal (z-score)", "setting": "[3]", "result": 0.044},
      {"measurement": "glycan array binding signal (z-score)", "setting": "[4]", "result": -0.493},
      {"measurement": "glycan array binding signal (z-score)", "setting": "[5]", "result": 0.346},
      {"measurement": "glycan array binding signal (z-score)", "setting": "[6]", "result": -0.432},
      {"measurement": "glycan array binding signal (z-score)", "setting": "[7]", "result": -0.505},
      {"measurement": "glycan array binding signal (z-score)", "setting": "[8]", "result": -0.142},
      {"measurement": "glycan array binding signal (z-score)", "setting": "[9]", "result": -0.121},
      {"measurement": "glycan array binding signal (z-score)", "setting": "[10]", "result": -0.396},
      {"measurement": "glycan array binding signal (z-score)", "setting": "[11]", "result": -0.239},
      {"measurement": "glycan array binding signal (z-score)", "setting": "[12]", "result": 0.038},
      {"measurement": "glycan array binding signal (z-score)", "setting": "Gal(b1-4)Gal", "result": 0.563},
      {"measurement": "glycan array binding signal (z-score)", "setting": "[13]", "result": -0.108},
      {"measurement": "glycan array binding signal (z-score)", "setting": "[14]", "result": -0.404},
      {"measurement": "glycan array binding signal (z-score)", "setting": "Gal(b1-4)Glc", "result": 0.047},
      {"measurement": "glycan array binding signal (z-score)", "setting": "Gal(b1-4)Glc6S", "result": -0.16},
      {"measurement": "glycan array binding signal (z-score)", "setting": "Gal(b1-4)GlcNAc", "result": -0.039},
      {"measurement": "glycan array binding signal (z-score)", "setting": "[15]", "result": -0.526},
      {"measurement": "glycan array binding signal (z-score)", "setting": "Gal(b1-4)GlcNAc(b1-2)Man", "result": 0.03},
      {"measurement": "glycan array binding signal (z-score)", "setting": "[16]", "result": 0.159},
      {"measurement": "glycan array binding signal (z-score)", "setting": "[17]", "result": -0.123},
      {"measurement": "glycan array binding signal (z-score)", "setting": "[18]", "result": -0.246},
      {"measurement": "glycan array binding signal (z-score)", "setting": "[19]", "result": -0.328},
      {"measurement": "glycan array binding signal (z-score)", "setting": "[20]", "result": -0.641},
      {"measurement": "glycan array binding signal (z-score)", "setting": "[21]", "result": -0.323},
      {"measurement": "glycan array binding signal (z-score)", "setting": "[22]", "result": -0.495},
      {"measurement": "glycan array binding signal (z-score)", "setting": "[23]", "result": -0.159},
      {"measurement": "glycan array binding signal (z-score)", "setting": "[24]", "result": -0.218},
      {"measurement": "glycan array binding signal (z-score)", "setting": "[25]", "result": 0.009},
      {"measurement": "glycan array binding signal (z-score)", "setting": "[26]", "result": -0.572},
      {"measurement": "glycan array binding signal (z-score)", "setting": "[27]", "result": -0.323},
      {"measurement": "glycan array binding signal (z-score)", "setting": "[28]", "result": 0.246},
      {"measurement": "glycan array binding signal (z-score)", "setting": "[29]", "result": -0.135},
      {"measurement": "glycan array binding signal (z-score)", "setting": "[30]", "result": -0.162},
      {"measurement": "glycan array binding signal (z-score)", "setting": "[31]", "result": -0.484}
    ]}
  ]
}
